According to the supplement of paper PMC7125110:
± gives the standard error. This sample is rich in variants without activity.

B1: glmS ribozyme (parent)
chain: AUAAAAGCGCCAGAACUACAGAAAUGUAGUUGACGAGGAGGAGGUUUAUCGAAUUUUCGGCGGAUGCCUCCAAA

Experiments:
Conditions in all cases: with glucosamine-6-phosphate
glucosamine-6-phosphate [1] = variants of: B1; assay: self-cleavage kobs at 640 uM GlcN6P; higher = faster cleavage; RNA array
In short: (§1)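 In situ transcription by E. coli RNA polymerase produced barcoded ribozyme variants on sequenced MiSeq chips, and a hybridised Cy3 probe tracked them at 37 °C. Glucosamine-6-phosphate was flowed in at 40 μM to 10 mM in HEPES/KCl/Mg(OAc)2 buffer. kcat and KM were taken from weighted Michaelis–Menten fits of kobs values from exponential decay fits.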

glucosamine-6-phosphate [2] = variants of: B1; assay: self-cleavage kobs at 160 uM GlcN6P; higher = faster cleavage; RNA array
In short: as §1

glucosamine-6-phosphate [3] = variants of: B1; assay: self-cleavage kobs at 10000 uM GlcN6P; higher = faster cleavage; RNA array
In short: as §1

glucosamine-6-phosphate [4] = variants of: B1; assay: self-cleavage kobs at 2500 uM GlcN6P; higher = faster cleavage; RNA array
In short: as §1

Variant | self-cleavage kobs at 640 uM GlcN6P (glucosamine-6-phosphate [1]) [s⁻¹] | self-cleavage kobs at 160 uM GlcN6P (glucosamine-6-phosphate [2]) [s⁻¹] | self-cleavage kobs at 10000 uM GlcN6P (glucosamine-6-phosphate [3]) [s⁻¹] | self-cleavage kobs at 2500 uM GlcN6P (glucosamine-6-phosphate [4]) [s⁻¹]
A14U G43A | < 1e-05 | – | – | –
G13U C34G A64U | < 1e-05 | – | – | –
A15U G38A | < 1e-05 | < 1e-05 | < 1e-05 | –
A14C G32A G40U G59C | < 1e-05 | – | – | –
G13U G40C G60A | < 1e-05 | – | – | < 1e-05
A14U G35U G44U | < 1e-05 | – | – | –
A14C U56G U57A C71A | 8.95e-05 ± 2.3e-05 | – | – | 5.04e-05 ± 2e-05
A15C A42C G44A U47A | < 1e-05 | – | – | < 1e-05
G13C G38C C58G U65G C71G | < 1e-05 | – | – | –
C16A C34U C61G | < 1e-05 | < 1e-05 | – | < 1e-05
G13U A42U A48U G51A | < 1e-05 | – | – | –
A14C C70A | 5.59e-05 ± 6.8e-06 | 4.49e-05 ± 9.3e-06 | 0.000102 ± 9.4e-06 | 9.55e-05 ± 8e-06
C16G U45C | 7.2e-05 ± 2.1e-05 | – | 0.000243 ± 3.7e-05 | 0.000367 ± 9.7e-05
A14U G41U | 0.000109 ± 1.4e-05 | 4.48e-05 ± 7.9e-06 | 0.000271 ± 3.1e-05 | 0.000292 ± 5.4e-05
A14C C16G G66C | < 1e-05 | – | – | < 1e-05
C16G U45A C58A | 6.95e-05 ± 1.6e-05 | – | – | 0.000197 ± 3.9e-05
A14G A15G U55G A64G | 0.00775 ± 0.002 | 0.00524 ± 0.0017 | – | –
A15U G66U | 6.31e-05 ± 9.8e-06 | – | – | –
A15G A36U G41U A48U G62A | < 1e-05 | – | – | –
C16U G63C U65G | < 1e-05 | – | – | –

Variant | self-cleavage kobs at 640 uM GlcN6P (glucosamine-6-phosphate [1]) [s⁻¹] | self-cleavage kobs at 160 uM GlcN6P (glucosamine-6-phosphate [2]) [s⁻¹] | self-cleavage kobs at 10000 uM GlcN6P (glucosamine-6-phosphate [3]) [s⁻¹] | self-cleavage kobs at 2500 uM GlcN6P (glucosamine-6-phosphate [4]) [s⁻¹]
G13U A14C G32A U46C G63A C68U U69G C71U | < 1e-05 | < 1e-05 | – | –
A14U C50G G62A | 0.000193 ± 8.2e-05 | – | – | –
G13U U31G A48G A52U | < 1e-05 | – | – | –
A15C A48C C68U | < 1e-05 | – | – | < 1e-05
C16G A33U G41C C68A | < 1e-05 | – | – | < 1e-05
C16U A33C G38C U45A C67U | < 1e-05 | < 1e-05 | – | –
A15U G43U C67U | < 1e-05 | < 1e-05 | – | < 1e-05
A15C G40A G43A | < 1e-05 | – | – | –
G13C U31A | 7.16e-05 ± 1.3e-05 | – | – | 0.00017 ± 3.3e-05
A15G U30A C67A C70U | 0.000654 ± 0.00016 | – | 0.00115 ± 0.00026 | 9.99e-05 ± 4.6e-05
A14C G66A C71U | 0.000399 ± 9.8e-05 | 0.000171 ± 5.4e-05 | – | 0.00114 ± 0.00023
C16G C34A G62U | < 1e-05 | – | < 1e-05 | < 1e-05
A14C A36U G38A U69A | 7.64e-05 ± 1.8e-05 | – | – | –
G13U G41U C61G C71G | < 1e-05 | < 1e-05 | – | –
A15G C58A U69G | 0.000122 ± 3.7e-05 | – | – | 8.9e-05 ± 2.5e-05
C16U G29U G63A | < 1e-05 | – | – | –
A14G A33U G44U U47C G63U | < 1e-05 | – | < 1e-05 | < 1e-05
A15C G35A U65G | < 1e-05 | – | – | < 1e-05
C16U G37C A39U U49G | < 1e-05 | – | – | < 1e-05
C16A U54C G59U | < 1e-05 | – | – | –

Variant | self-cleavage kobs at 640 uM GlcN6P (glucosamine-6-phosphate [1]) [s⁻¹] | self-cleavage kobs at 160 uM GlcN6P (glucosamine-6-phosphate [2]) [s⁻¹] | self-cleavage kobs at 10000 uM GlcN6P (glucosamine-6-phosphate [3]) [s⁻¹] | self-cleavage kobs at 2500 uM GlcN6P (glucosamine-6-phosphate [4]) [s⁻¹]
A14G G29U G35C | < 1e-05 | < 1e-05 | < 1e-05 | < 1e-05
A14G G32A A33C C34G G43U U47C | < 1e-05 | < 1e-05 | – | < 1e-05
C16A A39U G40A A53U C58U U65G | < 1e-05 | – | – | < 1e-05
G13U G35A A52U | < 1e-05 | – | – | –
C19A C34G A39C | < 1e-05 | < 1e-05 | – | < 1e-05
C16U U30A G43A C70A | < 1e-05 | < 1e-05 | – | –
A14C G41A G62U C70G | < 1e-05 | – | – | < 1e-05
A15C G44C C50U | < 1e-05 | – | – | < 1e-05
A15U A33G G59U | < 1e-05 | – | – | < 1e-05
C16G A33U G35U G41A U45G A48G | < 1e-05 | – | – | < 1e-05
A15C C34U | < 1e-05 | < 1e-05 | < 1e-05 | < 1e-05
C16U U30A A42U | < 1e-05 | – | – | –
A15U G32U G35C A36U | < 1e-05 | – | – | –
C16A G32C U47A U56C | < 1e-05 | – | – | –
A15G A36G C67G | < 1e-05 | – | – | –
C16G A33U A52U C61U C71U | < 1e-05 | – | – | –
A14C G32C C71U | 7.58e-05 ± 2.5e-05 | – | 0.000332 ± 7.4e-05 | 0.000118 ± 2.6e-05
A14C A36G A39G U46C | < 1e-05 | – | – | –
